Source: patent publication US6706740B2, “Fungicidal heterocyclic aromatic amides and their compositions, methods of use and preparation” (Dow AgroSciences LLC, priority 1999, dated 2004)

The compounds below were run on Plasmopara viticola—PLASVI (assay: whole plant or invertebrate). Conditions: Plasmopara, 24 h, read-out: PLASVI in vivo 1 Day Protectant, 100 ppm, 24 hour protectant, grape; control of fungal infection vs untreated plants.
Assay type: in vivo
In the case of `COc1ccnc(C(=O)NC(C)c2ccc(Cl)cc2)c1O` (stereo not drawn) [Compound 246], the pest or weed control at 100 ppm was < 25%.
`O=C(NCc1ccccc1Cl)c1ncccc1O` [Compound 218] gave a pest or weed control at 100 ppm of 25 to 74%.
`COc1ccnc(C(=O)NC2C3CC4C(C3Cl)C42)c1O` (stereo not drawn) [Compound 304] gave a pest or weed control at 100 ppm of 25 to 74%.
For `CCCCC1(C)CCCC(NC(=O)c2nccc(OC)c2O)C1` (stereo not drawn) [Compound 254], the pest or weed control at 100 ppm was < 25%.
With `COc1ccnc(C(=O)NCC(C)(C)Sc2ncc(C(F)(F)F)cc2Cl)c1O` [Compound 244] the pest or weed control at 100 ppm was < 25%.
In the case of `COc1ccnc(C(=O)NC2CCCCCCC2)c1O` [Compound 282], the pest or weed control at 100 ppm was < 25%.
In the case of `O=C(OC1CCC(NC(=O)c2ncccc2O)CC1)c1ccccc1` (stereo not drawn) [Compound 211], the pest or weed control at 100 ppm was < 25%.
With `Cc1ccc(CNC(=O)c2ncccc2O)cc1` [Compound 223] the pest or weed control at 100 ppm was 25 to 74%.
With `COc1ccnc(C(=O)N[C@@H]2CC3CC2[C@@H](C(=O)OCCc2ccccc2)[C@H]3C(=O)OCC(C)C)c1O` (stereo partly drawn) [Compound 301] the pest or weed control at 100 ppm was < 25%.
Work on `COc1ccnc(C(=O)N[C@@H]2CC3CC2C[C@@H]3COCc2cccc(C(F)(F)F)c2)c1O` (stereo partly drawn) [Compound 297] yielded a pest or weed control at 100 ppm of 25 to 74%.
In the case of `O=C(NCc1cccc2ccccc12)c1ncccc1O` [Compound 228], the pest or weed control at 100 ppm was < 25%.
In the case of `C[C@H]1C2CC([C@H]3CCC[C@@H]23)[C@@H]1NC(=O)c1ncccc1O` (stereo partly drawn) [Compound 207], the pest or weed control at 100 ppm was < 25%.
For `COc1ccnc(C(=O)NC2CC(C(F)(F)F)CC(C(F)(F)F)C2)c1O` (stereo not drawn) [Compound 256], the pest or weed control at 100 ppm was < 25%.

Same assay, conditions: Plasmopara, 24 h, read-out: PLASVI in vivo 1 Day Protectant, 100 ppm, grape, 24 hour protectant, % control of fungal infection vs untreated plants
For `COc1ccnc(C(=O)N[C@H]2COC(=O)[C@H](Cc3ccccc3)[C@@H](OC(=O)C(C)C)[C@H](C)OC2=O)c1OC(=O)Cc1ccccc1` [Compound 648], the pest or weed control at 100 ppm was < 25%.
For `COc1ccnc(C(=O)N[C@H]2COC(=O)[C@H](Cc3ccccc3)[C@@H](OC(=O)C(C)C)[C@H](C)OC2=O)c1OS(=O)(=O)c1ccc(C)cc1` [Compound 722], the pest or weed control at 100 ppm was < 25%.
Work on `COc1ccnc(C(=O)Nc2ccc(Oc3ccc(C(F)(F)F)cc3)cc2)c1OS(C)(=O)=O` [Compound 723] yielded a pest or weed control at 100 ppm of 25 to 74%.
In the case of `C/C=C/C(=O)Oc1c(OC)ccnc1C(=O)N[C@H]1COC(=O)[C@H](Cc2ccccc2)[C@@H](OC(=O)C(C)C)[C@H](C)OC1=O` [Compound 600], the pest or weed control at 100 ppm was < 25%.
With `COc1ccc(C(=O)Oc2c(OC)ccnc2C(=O)N[C@H]2COC(=O)[C@H](Cc3ccccc3)[C@@H](OC(=O)C(C)C)[C@H](C)OC2=O)cc1` [Compound 634] the pest or weed control at 100 ppm was < 25%.
In the case of `CCCCCCC(=O)Oc1c(OC)ccnc1C(=O)N[C@H]1COC(=O)[C@H](Cc2ccccc2)[C@@H](OC(=O)C(C)C)[C@H](C)OC1=O` [Compound 613], the pest or weed control at 100 ppm was < 25%.
With `COCCC(=O)Oc1c(OC)ccnc1C(=O)N[C@H]1COC(=O)[C@H](Cc2ccccc2)[C@@H](OC(=O)CCOC)[C@H](C)OC1=O` [Compound 705] the pest or weed control at 100 ppm was < 25%.
With `COc1ccnc(C(=O)N[C@H]2COC(=O)[C@H](Cc3ccccc3)[C@@H](OC(=O)C(C)C)[C@H](C)OC2=O)c1OC(=O)C=C(C)C` [Compound 607] the pest or weed control at 100 ppm was < 25%.
For `COc1ccnc(C(=O)N[C@H]2COC(=O)[C@H](Cc3ccccc3)[C@@H](OC(=O)C(C)C)[C@H](C)OC2=O)c1OS(C)(=O)=O` [Compound 721], the pest or weed control at 100 ppm was < 25%.

Same assay, conditions: Plasmopara, 24 h, read-out: PLASVI in vivo 1 Day Protectant, 100 ppm, grape, 24 hour protectant; control of fungal infection vs untreated plants
`COc1ccnc(C(=O)Nc2cc(C)c(OC(=O)c3ccc(C(F)(F)F)cc3)c(C)c2)c1O` [Compound 457] was tested, and the pest or weed control at 100 ppm was < 25%.
`COc1ccnc(C(=O)NC2COC(=O)CC(c3ccccc3)C(=O)OC2)c1O` (stereo not drawn) [Compound 375] was tested, and the pest or weed control at 100 ppm was 25 to 74%.
With `COc1ccnc(C(=O)Nc2ccc(C(=O)c3cccc(C(F)(F)F)c3)cc2)c1O` [Compound 405] the pest or weed control at 100 ppm was < 25%.
In the case of `COc1ccnc(C(=O)N[C@H]2COC(=O)[C@H](Cc3ccccc3)[C@@H](OC(=O)C3CCCC3)[C@H](C)OC2=O)c1O` [Compound 391], the pest or weed control at 100 ppm was < 25%.
`COc1ccnc(C(=O)N[C@H]2C[C@@H](O[Si](C)(C)C(C)(C)C)O[C@@H](C)[C@@H]2OCc2ccccc2)c1O` [Compound 328] gave a pest or weed control at 100 ppm of 25 to 74%.
`COc1ccnc(C(=O)Nc2ccccc2Oc2ccc(C)cc2)c1O` [Compound 411] was tested, and the pest or weed control at 100 ppm was < 25%.
`COc1ccnc(C(=O)N[C@H]2COC(=O)[C@H](Cc3ccccc3)[C@@H](OC(C)=O)[C@H](C)OC2=O)c1O` [Compound 385] was tested, and the pest or weed control at 100 ppm was < 25%.
`COc1ccnc(C(=O)N[C@H]2COC(=O)[C@H](Cc3ccccc3)[C@@H](OC(=O)NC(C)(C)C)[C@H](C)OC2=O)c1O` [Compound 400] showed a pest or weed control at 100 ppm of 25 to 74%.
`COc1ccnc(C(=O)N[C@H]2COC(=O)[C@H](Cc3ccccc3)[C@@H](OC(=O)OC(C)C)[C@H](C)OC2=O)c1O` [Compound 401] was tested, and the pest or weed control at 100 ppm was < 25%.
In the case of `COc1ccnc(C(=O)Nc2ccc(Oc3cccc(C#N)c3)cc2)c1O` [Compound 421], the pest or weed control at 100 ppm was < 25%.
`COc1ccnc(C(=O)N[C@@H]2[C@@H](O)[C@H](O)[C@@H](CO)O[C@@H]2O)c1O` [Compound 334, N-(3-HYDROXY-4-METHOXY-2-PYRIDYLCARBONYL)-2-AMINO-2-DEOXY-alpha-D-GLUCOPYRANOSE] was tested, and the pest or weed control at 100 ppm was < 25%.
For `COc1ccnc(C(=O)Nc2cccc(Oc3ccc(C)cc3)c2)c1O` [Compound 414], the pest or weed control at 100 ppm was < 25%.
Work on `COc1ccnc(C(=O)N[C@H]2COC(=O)[C@H](Cc3ccccc3)[C@@H](O)[C@H](C)OC2=O)c1O` [Compound 383] yielded a pest or weed control at 100 ppm of 25 to 74%.
In the case of `COc1ccnc(C(=O)N[C@H]2COC(=O)[C@H](Cc3ccccc3)[C@@H](OC(=O)C(C)(C)C)[C@H](C)OC2=O)c1O` [Compound 388], the pest or weed control at 100 ppm was < 25%.
`COc1ccnc(C(=O)NC2CC(=O)OCC(C)COC2=O)c1O` (stereo not drawn) [Compound 378] was tested, and the pest or weed control at 100 ppm was < 25%.
`COc1ccnc(C(=O)N[C@@H]2OC[C@@H](OC(C)=O)[C@H](OC(C)=O)[C@H]2OC(C)=O)c1O` [Compound 330] gave a pest or weed control at 100 ppm of 25 to 74%.
In the case of `COc1ccnc(C(=O)N[C@H]2CC(=O)OCC(NC(=O)OC(C)(C)C)COC2=O)c1O` (stereo partly drawn) [Compound 379], the pest or weed control at 100 ppm was 25 to 74%.
In the case of `COc1ccnc(C(=O)Nc2ccc(Sc3ccc(C(F)(F)F)cc3)cc2)c1O` [Compound 446], the pest or weed control at 100 ppm was < 25%.

Same assay, conditions: Plasmopara, 24 h, read-out: PLASVI in vivo 1 Day Protectant, grape plants, 100 ppm, 24 hour protectant; control of fungal infection vs untreated plants
`CC1(C)CC(NC(=O)c2ccncc2O)CC(C)(C)C1` [Compound 505] gave a pest or weed control at 100 ppm of 25 to 74%.
Work on `COc1cccc(CNC(=O)c2cccnc2O)c1OC` [Compound 516] yielded a pest or weed control at 100 ppm of 25 to 74%.
With `O=C(Nc1cccc(Oc2ccc(C(F)(F)F)cc2)c1)c1nc(Br)ccc1O` [Compound 496] the pest or weed control at 100 ppm was < 25%.
With `CC(NC(=O)c1ccncc1O)c1ccc(Cl)cc1` (stereo not drawn) [Compound 509] the pest or weed control at 100 ppm was 25 to 74%.
For `CC(C)(C)C1CCC(NC(=O)c2cnccc2O)CC1` (stereo not drawn) [Compound 504], the pest or weed control at 100 ppm was < 25%.
For `O=C(Nc1ccc(Oc2cccc(C(F)(F)F)c2)cc1)c1nc(Br)ccc1O` [Compound 498], the pest or weed control at 100 ppm was < 25%.
In the case of `Cc1nc(O)c(C(=O)N[C@H]2COC(=O)[C@H](Cc3ccccc3)[C@@H](OC(=O)C(C)C)[C@H](C)OC2=O)nc1C` [Compound 536], the pest or weed control at 100 ppm was < 25%.
With `CC(C)C(=O)O[C@H]1[C@H](C)OC(=O)[C@@H](NC(=O)c2cnn(C)c2O)COC(=O)[C@@H]1Cc1ccccc1` [Compound 556] the pest or weed control at 100 ppm was < 25%.
`COc1ccnc(C(=O)Nc2ccc(Oc3cc(C(F)(F)F)cc(C(F)(F)F)n3)cc2)c1O` [Compound 464] was tested, and the pest or weed control at 100 ppm was < 25%.
`CC(NC(=O)c1ccncc1O)c1ccc(C(F)(F)F)cc1` (stereo not drawn) [Compound 510] was tested, and the pest or weed control at 100 ppm was < 25%.
In the case of `COc1ccnc(C(=O)N[C@H]2C[C@@H](C(F)(F)F)C[C@@H](C(F)(F)F)C2)c1OC(C)=O` [Compound 576], the pest or weed control at 100 ppm was < 25%.
For `Cc1nc(O)c(C(=O)NC2CC(C)(C)CC(C)(C)C2)cc1Cl` [Compound 530], the pest or weed control at 100 ppm was < 25%.
In the case of `Cc1cc(C)c(C(=O)N[C@H]2COC(=O)[C@H](Cc3ccccc3)[C@@H](OC(=O)C(C)C)[C@H](C)OC2=O)c(O)n1` [Compound 529], the pest or weed control at 100 ppm was < 25%.
With `COc1ccnc(C(=O)Nc2ccc(Oc3cccc(C(F)(F)F)n3)cc2)c1O` [Compound 463] the pest or weed control at 100 ppm was < 25%.
`Cc1cc(C)c(C(=O)NC2CC(C)(C)CC(C)(C)C2)c(O)n1` [Compound 528] was tested, and the pest or weed control at 100 ppm was < 25%.
`CC(NC(=O)c1nc(Br)ccc1O)c1ccc(C(F)(F)F)cc1` (stereo not drawn) [Compound 488] gave a pest or weed control at 100 ppm of 25 to 74%.
`CCOc1ccnc(C(=O)Nc2ccc(Oc3cccc(C(F)(F)F)c3)cc2)c1O` [Compound 476] was tested, and the pest or weed control at 100 ppm was < 25%.
In the case of `COc1cc(Br)nc(C(=O)N[C@H]2COC(=O)[C@H](Cc3ccccc3)[C@@H](OC(=O)C3CCCCC3)[C@H](C)OC2=O)c1O` [Compound 501], the pest or weed control at 100 ppm was < 25%.
`COC(=O)C(COC(=O)COCc1ccccc1)NC(=O)c1nccc(OC)c1OC(C)=O` (stereo not drawn) [Compound 585] was tested, and the pest or weed control at 100 ppm was < 25%.
With `COc1ccnc(C(=O)Nc2cccc(Oc3ccc(C(F)(F)F)cc3)n2)c1O` [Compound 469] the pest or weed control at 100 ppm was < 25%.
For `CC(C)C(=O)O[C@H]1[C@H](C)OC(=O)[C@@H](NC(=O)c2nnc(O)nc2O)COC(=O)[C@@H]1Cc1ccccc1` [Compound 544], the pest or weed control at 100 ppm was < 25%.
With `CC(C)C(=O)O[C@H]1[C@H](C)OC(=O)[C@@H](NC(=O)c2cncnc2O)COC(=O)[C@@H]1Cc1ccccc1` [Compound 540] the pest or weed control at 100 ppm was < 25%.
`CC(=O)Oc1cccnc1C(=O)NC1CCC(OC(C)=O)CC1` (stereo not drawn) [Compound 564] was tested, and the pest or weed control at 100 ppm was < 25%.
Compound `CC(C)C(=O)O[C@H]1[C@H](C)OC(=O)[C@@H](NC(=O)c2cc(O)cnc2O)COC(=O)[C@@H]1Cc1ccccc1` [Compound 527] has a pest or weed control at 100 ppm of 25 to 74%.
With `COC(=O)C(COC(=O)CCc1ccccc1)NC(=O)c1nccc(OC)c1OC(C)=O` (stereo not drawn) [Compound 583] the pest or weed control at 100 ppm was 25 to 74%.
For `O=C(NCc1ccc(Cl)c(Cl)c1)c1cccnc1O` [Compound 517], the pest or weed control at 100 ppm was 25 to 74%.
